Experimental findings from publication PMC8602864, “The Molecular Assembly State of Drp1 Controls its Association With the Mitochondrial Recruitment Receptors Mff and MIEF1/2” (Frontiers in Cell and Developmental Biology, 2021) are described below.

A word on the stoichiometry N: it is the number of molecules, sites or subunits per partner or assembly.

This series concerns the molecule itself. Kind of series: cross-linking; in vivo: intact 293T cells (WT; MIEF1/2/Mff-/-; overexpressing MIEF1-V5, MIEF2-V5 or Myc-Mff; or Drp1-/- transfected with untagged Drp1 for 18 h) with 1 mM DSS in PBS with Ca2+/Mg2+, time course or 3 h, room temperature, quenched with 50 mM Tris pH 7.5; reducing SDS-PAGE and Western blot. Background: A western blot detects proteins with antibodies after separation by electrophoresis.

B1: untagged […]D (natural protein)
chain: not shown
notes: human Drp1 isoform 1 with the disease-associated lethal mutation A395D, untagged; Made by site-directed mutagenesis on untagged Drp1-WT; Copies: said to form mainly tetramers (~280 kDa)
On to B1, for which the “stoichiometry N” value is 4.
